The supplement of paper PMC12217912
The list shows a part of the results. The full chains were built here from the parent and the listed change. Values near 0.05 are background.

B1: TEV protease; numbered along this chain (parent)
chain: MGESLFKGPRDYNPISSSICHLTNESDGHTTSLYGIGFGPFIITNKHLFRRNNGTLVVQSLHGVFKVKDTTTLQQHLVDGRDMIIIRMPKDFPPFPQKLKFREPQREERICLVTTNFQTKSMSSMVSDTSCTFPSGDGIFWKHWIQTKDGQCGSPLVSTRDGFIVGIHSASNFTNTNNYFTSVPKNFMELLTNQEAQQWVSGWRLNADSVLWGGHKVFMVKPEEPFQPVKEATQL

Variants of: B1
Assay: raw area under fraction-flipped curve 0-4 h after induction (AUC4h, not background-subtracted), DNA-recorder readout of cleavage of the substrate (dimensionless); higher = more cleavage of the substrate by the protease variant
Settings: temperature: 34 °C; time window: 0-4 h after rhamnose induction
Method: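 In vivo DNA recorder in E. coli TOP10(DE3) ΔrhaA at 34 °C. Each TEVp single-site mutant (parent TEVp 0) is paired with a single-site variant of the 7-mer TEVs (canonical ENLYFQ|S). The substrate sits between flexible linkers in a Bxb1-sfGFP-TEVs-SsrA fusion, so cleavage stabilises Bxb1 and speeds flipping of a recombination array, read by NGS. The value is the raw area under the fraction-flipped curve over 0-4 h after rhamnose induction (AUC4h), with ≥20 reads per time point. It is not background-subtracted; inactive controls average about 0.047.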
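Note: Bxb1 expression induced with 0.2% (w/v) L-rhamnose at OD600 near 0.5, cultures sampled hourly, flipped fraction per protease–substrate barcode pair counted by paired-end Illumina sequencing.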

Row | Variant | area with substrate ENCYFQS | area with substrate ENEYFQS | area with substrate ENFYFQS | area with substrate ENGYFQS | area with substrate ENHYFQS | area with substrate ENIYFQS | area with substrate ENKYFQS | area with substrate ENNYFQS | area with substrate ENPYFQS | area with substrate ENSYFQS | area with substrate ENTYFQS | area with substrate ENYYFQS | area with substrate ENDYFQS | area with substrate ENMYFQS | area with substrate ENQYFQS | area with substrate ENRYFQS | area with substrate ENVYFQS | area with substrate ENWYFQS
1 | MGESLFKGPRDYNPISSSICHLTNESDGHTTSLYGIGFGPFIITNKHLFRRNNGTLVVQSLHGVFKVKDTTTLQQHLVDGRDMIIIRMPKDFPPFPQKLKFREPQREERICLVTTNFQTKSMSSMVSDTSCTFPSGDGIFWKHFIQTKDGQCGSPLVSTRDGFIVGIHSASNFTNTNNYFTSVPKNFMELLTNQEAQQWVSGWRLNADSVLWGGHKVFMVKPEEPFQPVKEATQL [W144F] | 0.0746 | 0.0434 | 0.0621 | 0.0698 | 0.0591 | 0.119 | 0.0612 | 0.0686 | 0.053 | 0.0709 | 0.0606 | 0.0611 | – | – | – | – | – | –
2 | MGESLFKGPRDYNPISSSICHLTNESDGHTTSLYGIGFGPFIITNKHLFRRNNGTLVVQSLHGVFKVKDTTTLQQHLVDGRDMIIIRMPKDFPPFPQKLKFREPQREERICLVTTNFQTKSMSSMVSDTSCTFPSGDGIFWKHWIQTKDGQCGSPLVSTMDGFIVGIHSASNFTNTNNYFTSVPKNFMELLTNQEAQQWVSGWRLNADSVLWGGHKVFMVKPEEPFQPVKEATQL [R160M] | 0.0609 | 0.0478 | – | – | 0.074 | – | 0.063 | 0.0666 | – | – | – | – | 0.0604 | – | – | – | – | –
3 | MGESLFKGPRDYNPISSSICHLTNESDGHTTSLYGIGFGPFIITNKHLFRRNNGTLVVQSLHGVFKVKDTTTLQQHLVDGRDMIIIRMPKDFPPFPQKLKFREPQREERICLVTTNFQTKSMSSMVSDTSCTFPSVDGIFWKHWIQTKDGQCGSPLVSTRDGFIVGIHSASNFTNTNNYFTSVPKNFMELLTNQEAQQWVSGWRLNADSVLWGGHKVFMVKPEEPFQPVKEATQL [G136V] | 0.0779 | 0.0598 | – | – | 0.0569 | – | – | 0.0674 | – | 0.0699 | – | – | 0.0664 | 0.0619 | 0.0589 | 0.0526 | 0.0753 | –
4 | MGESLFKGPRDYNPISSSICHLTNESDGHTTSLYGIGFGPFIITNKHLFRRNNGTLVVQSLHGVFKVKDTTTLQQHLVDGRDMIIIRMPKDFPPFPQKLKFREPQREERICLVTTNFQTKSMSSMVSDTSCTFPSGDGIFHKHWIQTKDGQCGSPLVSTRDGFIVGIHSASNFTNTNNYFTSVPKNFMELLTNQEAQQWVSGWRLNADSVLWGGHKVFMVKPEEPFQPVKEATQL [W141H] | 0.0739 | 0.0587 | 0.0521 | 0.0481 | 0.0575 | 0.0866 | – | – | – | – | 0.051 | 0.0636 | 0.0559 | – | 0.0566 | 0.051 | 0.0506 | 0.0387
5 | MGESLFKGPRDYNPISSSICHLTNESDGHTTSLYGIGFGPFIITNKHLFRRNNGTLVVQSLHGVFKVKDTTTLQQHLVDGRDMIIIRMPKDFPPFPQKLKFREPQREERICLVTTNFQTKSMSSMVSDTSCTGPSGDGIFWKHWIQTKDGQCGSPLVSTRDGFIVGIHSASNFTNTNNYFTSVPKNFMELLTNQEAQQWVSGWRLNADSVLWGGHKVFMVKPEEPFQPVKEATQL [F133G] | 0.0679 | – | 0.0718 | – | – | 0.0545 | 0.0533 | 0.0624 | 0.0616 | – | 0.0593 | 0.0718 | 0.0898 | 0.0592 | 0.0631 | – | 0.0945 | –
